Assay results published in PubChem BioAssay AID463173 (ICCB-Longwood Screening Facility, Harvard Medical School, 2010).
Among all 52,000 compounds or so, about 4,300 (8.3%) were called active. Cut-off read from the data, not from the text of the source: active = survival mostly below about 52% (no sharp cut-off); inactive = mostly above about 56%. Some of the results follow.

System: DeltatarO mutant
Assay: growth inhibition of S. aureus wild type versus tarO mutant, primary screen, teichoic acid synthesis inhibitors, RN4220, OD600 (AID 463173)
Conditions: OD600, 18 h, active compounds read low, screened at 18.75 µg/mL (by protocol)

Row | Compound | survival
1 | COc1ccc2nc(C)cc(SCC(=O)O)c2c1 | inactive: 68%
2 | CCn1c(SCC(=O)N(C)C)nnc1-c1ccccc1 | inactive: 91%
3 | Cc1ccc(C(=O)c2oc3ccccc3c2NC(=O)COc2ccc(C(C)C)cc2)cc1 | inactive: 73%
4 | Cc1cccc(OCc2nnc(SCC(=O)N3c4ccccc4CCc4ccccc43)o2)c1 | inactive: 99%
5 | O=C(NCC1CCCO1)c1c[nH]c2ccccc2c1=O (stereo not drawn) | inactive: 84%
6 | O=C(Nc1ccc(S(=O)(=O)Nc2ncccn2)cc1)c1cc(=O)c2ccccc2o1 | inactive: 58%
7 | CC(C)c1nn2c(=O)cc(COC(=O)c3ccc(NC(=O)C4CCCCC4)cc3)nc2s1 | inactive: 71%
8 | Cc1ccc(CSc2ncc(Cl)c(C(=O)NCc3ccccc3)n2)cc1 | inactive: 79%
9 | Cc1ccc(S(=O)(=O)N2CCCc3cc(NS(=O)(=O)c4cc(C)ccc4C)ccc32)cc1 | inactive: 91%
10 | COc1cc2cc(C(=O)Nc3ccccc3)c(N)nc2cc1OC | inactive: 92%
11 | COc1ccc(-c2cc(-c3ccccc3)nc3c2COc2ccc(F)cc2-3)cc1 | inactive: 73%
12 | CCN(CC)C(=O)Cn1c(=O)cc(C)c2c(C)nn(-c3ccc(C)cc3)c21 | inactive: 67%
13 | CCc1ccc(OCC2c3cc(OC)c(OC)cc3CCN2C(=O)c2ccc(S(=O)(=O)N3CCCC3)cc2)cc1 (stereo not drawn) | inactive: 87%
14 | CCn1cc(C(=O)NCCCOC(C)C)c(=O)c2cc(S(=O)(=O)N3CCOCC3)ccc21 | inactive: 129%
15 | CCOC(=O)c1cnc2c(ccc3ccccc32)c1Nc1ccc(N(C)C)cc1 | active: 0%
16 | CC1CCc2c(nc3ncnn3c2NCCc2ccccc2F)C1 (stereo not drawn) | inactive: 87%
17 | CC(C)N(Cc1ccccc1)C(=O)c1nc(-c2ccc(Cl)cc2)n2c1CCCCC2 | inactive: 115%
18 | O=S(=O)(c1ccc(Cl)cc1)c1nnn2c1nc(NC1CCCC1)c1sccc12 | inactive: 61%
19 | CCC1Sc2ccccc2N(CC(=O)NCc2ccc(C)cc2)C1=O (stereo not drawn) | inactive: 105%
20 | N#Cc1ccc(C=Nc2ccc(C(N)=O)cc2)cc1 | inactive: 75%

Row | Compound | survival
21 | Cc1cccn2c(=O)c3cc(C(=O)NCC(C)C)sc3nc12 | active: 63%
22 | COc1ccc(N2CCN(C(CNS(=O)(=O)c3ccc(OC)c(C)c3)c3ccco3)CC2)cc1 (stereo not drawn) | inactive: 79%
23 | O=C(CSc1nc2c([nH]c3ccccc32)c(=O)n1-c1ccccc1)Nc1ccc2c(c1)OCO2 | inactive: 119%
24 | Nc1c(C(=O)Nc2ccccc2Br)sc2nc(-c3cccs3)ccc12 | inactive: 50%
25 | COc1ccc(-c2nc(Cn3c(=O)cc(C)c4c(C)nn(-c5ccccc5)c43)c(C)o2)cc1OC | inactive: 128%
26 | Cc1ccc(C(=O)Cn2c(-c3ccccc3)noc2=O)cc1 | inactive: 72%
27 | Cc1cc(NC(=O)N2CCC(CN3CCCCCC3)CC2)ccc1Br | inactive: 78%
28 | COc1cccc(NC(=O)c2c(C)nn(-c3cccc(C)c3)c2-n2cccc2)c1 | active: 8%
29 | COc1cccc(CN2C(=O)CN(C3CCCCC3)C(=O)C2c2ccc(OC(C)C)c(OC)c2)c1 (stereo not drawn) | inactive: 97%
30 | N#Cc1ccc(-c2cccnc2)n(CC(=O)N2CC(=O)Nc3ccccc32)c1=O | inactive: 86%
31 | COC(=O)c1ccc2c(=O)n(CCCCCC(=O)NCCc3ccccc3)c(=O)[nH]c2c1 | inactive: 79%
32 | O=C(Nc1ccccc1)c1cccc(N2CCCC2=O)c1 | inactive: 86%
33 | CCOc1ccc(-c2cc(NC(=O)c3ccccc3)c(C(=O)OC)s2)cc1 | inactive: 94%
34 | Cc1cc(C)c(NC(=O)Cn2c(=O)oc3cc(S(=O)(=O)N4CCCCCC4)ccc32)c(C)c1 | inactive: 83%
35 | O=C(CCCOc1ccccc1)NC1CCSC1=O (stereo not drawn) | inactive: 90%
36 | Cc1ccc(-n2nc(C)c3c(C)c(CCC(=O)NC(C)c4ccccc4)c(C)nc32)cc1 (stereo not drawn) | inactive: 53%
37 | Cc1ccc(Cc2nc3ccccc3nc2SCC(=O)N2CCC(C)CC2)cc1 | inactive: 80%
38 | CC(C)CNS(=O)(=O)c1ccc(S(=O)(=O)N2CCN(c3ccccc3)CC2)cc1 | inactive: 92%
39 | Fc1ccc(CN2CCc3nc(N4CCN(c5ccccc5F)CC4)ncc3C2)c(F)c1 | inactive: 77%
40 | Cc1ccc(CNC(=O)c2ccc(CSc3nc4ccncc4n3Cc3ccc(C)cc3)cc2)cc1 | inactive: 119%

Row | Compound | survival
41 | COc1cccc(C(=O)Nc2ccc3nc(SCC(=O)N(C)c4ccccc4)sc3c2)c1 | inactive: 72%
42 | CCOc1ccc(NC(=O)c2c(C)oc3nc(C)nc(N4CCCC4)c23)cc1 | inactive: 60%
43 | O=C(NCCc1ccc(Cl)cc1)C1CCN(Cc2cc3ccccc3n2Cc2ccccc2)CC1 | inactive: 73%
44 | COc1ccc(CCNC(=O)CCc2cn(Cc3ccccc3Cl)c3ccccc23)c(OC)c1 | inactive: 59%
45 | COc1ccc(NC(=O)c2cc3c(-c4ccccc4F)nn(C)c3s2)c(OC)c1 | active: 44%
46 | Cc1ccccc1NC(=O)Cn1cc(S(=O)(=O)c2ccccc2)c(=O)c2ccccc21 | inactive: 81%
47 | CCC(C)NC(=O)c1cc(Sc2cccc(Cl)c2)nc2ccccc12 (stereo not drawn) | inactive: 99%
48 | CCCn1c2ccccc2c2cnn(CC(=O)NCCCN3CCCCC3CC)c(=O)c21 (stereo not drawn) | inactive: 77%
49 | CCN1CCN(Cc2c(O)ccc3oc(C)c(C(=O)Nc4cccc(Cl)c4C)c23)CC1 | inactive: 94%
50 | NC(=O)c1cc2n(n1)C(C(F)(F)F)CC(c1ccc(Cl)cc1)N2 (stereo not drawn) | inactive: 83%
51 | CCOC(=O)c1c(C)[nH]c2c1cc(O)c1ccccc12 | inactive: 89%
52 | O=C(CN1CCN(c2ncccn2)CC1)N1CCCC1 | inactive: 93%
53 | CCCN(C(=O)c1cc(S(=O)(=O)N2CCc3ccccc32)cn1C)c1ccc(OCC)cc1 | inactive: 63%
54 | Cc1ccc(Cl)cc1N1CCN(c2ncnc3c2nc2n3CCCC2)CC1 | inactive: 72%
55 | Cc1ccccc1NC(=O)C(=O)NCC(c1ccc2c(c1)OCO2)N1CCN(c2ccccc2)CC1 (stereo not drawn) | inactive: 73%
56 | CCOc1ccc(C2C(C(=O)Nc3ccccc3)=C(C)Nc3nc(-c4ccccc4Cl)nn32)cc1OC (stereo not drawn) | inactive: 48%
57 | O=C(O)CC1c2ccccc2CCN1C(=O)Nc1cc(Cl)ccc1Cl (stereo not drawn) | inactive: 94%
58 | Cc1ccc(-c2nnc(N3CCOCC3)c3ccccc23)cc1S(=O)(=O)NCC1CCCO1 (stereo not drawn) | inactive: 82%
